SMILES strings stand for the structures.

The term melting point denotes the temperature of the solid-liquid transition. `CC(C)C(=O)NC[C@H]1CN(c2ccc3c(c2)CCCc2cn[nH]c2-3)C(=O)O1` registered a melting point of 238 to 240 °C.

The values above are taken from a melting point compilation (Tetko et al.; mined from patent text by program, amines drawn as free bases though some values may be those of a salt).
